Reference: PubChem BioAssay (NCI)
Where “and” joins values, the source holds several entries; their conditions need not be identical. Identical values can stand only once.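 Results reflect a 48-hour exposure of cells in 96-well plates to compound at five concentrations. GI50: concentration for 50% inhibition of growth. TGI denotes the concentration required for complete inhibition of growth.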

The molecules below were run on NCI-H322M lung (assay: growth of human tumour cells (NCI), 48 h).

Row | SMILES | TGI | GI50
1 | O=[N+]([O-])c1ccc(Cl)cc1C=NC12CC3CC(CC(C3)C1)C2 | > 100 µM | 
2 | NCCCCNC1(c2cc3ccccc3s2)CCCCC1 | 16.4 µM | 
3 | CN(c1ccccc1Cl)S(=O)(=O)c1ccccc1[N+](=O)[O-] | > 100 µM | 
4 | Cc1cc(NC(=O)NC(=O)c2ccccc2NC(=O)CN)ccc1Oc1ncc(Br)cn1 | 31.7 µM and > 100 µM | 0.449 µM
5 | CC(=O)NC1=C(NCc2ccc(Cl)cc2)C(=O)c2ccccc2C1=O | > 50 µM | 
6 | O=C(O)/C=C/C(=O)O | > 100 µM | 
7 | Cc1c(F)c(N)c2c(=O)cc(-c3ccc(NC(=O)C(N)CCCN=C(N)N)c(F)c3)oc2c1F (stereo not drawn) | 36.9 µM | 
8 | COc1ccc(-n2c(C)nc3c(c(C)nn3-c3ccccc3)c2=O)cc1 | > 100 µM | 0.53 µM
9 | CC(C)CCC[C@@H](C)[C@H]1CCC2C3=CCC4C(=O)C=CC(=O)C4C3CC[C@@]21C (stereo partly drawn) | 2.18 µM | 0.361 µM
10 | CC(=O)OCC1OC(c2nnc(C)o2)=CC(OC(C)=O)C1OC(C)=O (stereo not drawn) | > 100 µM | 
11 | Cn1ccc(C(=O)NCCCCCNC(=O)c2ccn(C)c(=O)c2O)c(O)c1=O | > 100 µM | 
12 | C[Si]12OCCCN(CCO1)CCO2 | > 100 µM | 
13 | CC(=O)Nc1ccc(-c2nnc(SCC(=O)Nc3ccccc3C)o2)cc1 | > 100 µM | 
14 | COc1cc2c3c(n(CCCNCCNCCCN)c(=O)c2cc1OC)-c1cc2c(cc1C3=O)OCO2 | 7.34 µM | 2.37 µM
15 | COc1cc(/C=C/C(=O)OC[C@H](Br)[C@H](OC(C)=O)c2ccc3c(c2)OCO3)cc(OC)c1OC | > 100 µM | 
16 | O=C(O)CCCNS(=O)(=O)c1ccc2ccccc2c1 | > 100 µM | 
17 | N#Cc1c(N2CCN(c3ccc([N+](=O)[O-])cc3)CC2)[n+](=O)c2ccc(Cl)cc2n1[O-] | > 46.2 µM | 
18 | O=CN1CCN(C=S)CC1 | > 100 µM | 
19 | COc1ccc(C2=C(c3cc(OC)c(OC)c(OC)c3)C(=O)OC2)cc1OC | 12.1 µM | 0.0432 µM
20 | CCOC12SC(=Nc3ccc(C)cc3)NN1C(=S)N(C)N=C2C (stereo not drawn) | > 100 µM | 
21 | O=C1/C(=C/c2ccco2)NC(=S)N1CN1CCOCC1 | > 100 µM | 
22 | CCC[CH2][Sn]1([CH2]CCC)[O]C(=O)CN=Cc2ccccc2[O]1 | 2.24 µM | 1.04 µM
23 | CCCCCCCCCCCCCCCCn1cc[n+](Cc2ccccc2)c1C | 3.73 µM | 1.64 µM

Row | SMILES | TGI | GI50
24 | COc1ccc2c(c1)-c1nn(CCN(C)C)c3ccc(C(=O)NCCCN(C)CCCNC(=O)c4ccc5c6c(nn5CCN(C)C)-c5cc(OC)ccc5Nc46)c(c13)N2 | 0.757 µM | 
25 | O=C(NN1C(=O)C=CC1=O)c1ccccc1Nc1ccccc1C(=O)NN1C(=O)C=CC1=O | > 100 µM | 
26 | COc1ccc(-n2c3c(c4c(CN(C)C)c(O)c(C)cc42)CCc2ccccc2C3=O)cc1 | > 100 µM | > 100 µM
27 | O=C(c1ccccc1)N1C(=S)N(c2ccc([N+](=O)[O-])cc2)C(=Nc2ccccc2)C1=Nc1ccccc1 | > 100 µM | 
28 | Nc1nc2cc(CNc3ccc(C(=O)NC(CCC(=O)O)C(=O)O)cc3)ccc2nc1-c1ccccc1 (stereo not drawn) | > 10 µM | 
29 | COC(=O)C1=Cc2c(cc(OC)c(OC)c2OC)[C@H](c2ccc(OC)c(OC)c2OC)C1C(=O)OC (stereo partly drawn) | > 100 µM | 
30 | Oc1ccc(CN(Cc2ccc(C(F)(F)F)cc2)Cc2ccc(O)c3ncccc23)c2cccnc12 | > 100 µM | 0.186 µM
31 | CC(C)CCC/C(CBr)=C(\Cl)CCl | 27.3 µM | 
32 | CN(CCN(C)C(=O)CCOS(C)(=O)=O)C(=O)CCOS(C)(=O)=O | > 100 µM | 
33 | COc1ccc(-c2cc(-c3nnc(SCC(=O)Nc4ccc(C(C)=O)cc4)o3)c3ccccc3n2)cc1 | > 100 µM | > 100 µM
34 | CCOC(=O)/C(=C\c1ccc(F)cc1)C(C)=O | 62.2 µM | 
35 | CC(C)(C)c1cc(C2COC(=O)COCC(=O)OCCOCCOCCO2)cc(C(C)(C)C)c1O (stereo not drawn) | > 100 µM | 
36 | Cc1ccc2nc(Cl)c(/C=N/N3C(=O)/C(=C/c4ccc(N(C)C)cc4)N=C3c3ccccc3)cc2c1 | > 100 µM | 
37 | CC(C)(C)OC(=O)NCC(=O)N1CCCN(C(=O)CNC(=O)OC(C)(C)C)CC1 | > 100 µM | 
38 | CCOC(=O)c1cnc2cc3cccccc3n2c1=O | > 100 µM | 
39 | CN(C)CCOC1(CC2CCCCC2)CCC(C(C)(C)C)CC1 (stereo not drawn) | 19.5 µM | 
40 | COc1ccc(C2(C3c4cc(OC)c(OC)cc4CCN3C)SCCCS2)cc1O (stereo not drawn) | > 100 µM | 
41 | C[C@@H]1COC(Nc2ccc3ncnc(Nc4ccc(OCc5nccs5)c(Cl)c4)c3c2)=N1 | > 10 µM and 15.3 µM | 0.311 µM and 0.308 µM
42 | CC(=O)NC1=C(C)C(=O)c2c(nc3n2CC[C@H]3OC(C)=O)C1=O | 10.1 µM | 
43 | C/C(N=Nc1nc2ccccc2o1)=C1/C=CC=CN1O | 73.3 µM | 
44 | CC1CCC2(CC1)N=C1CCC(C)CC1C1(CCC(C)CC1)N2 (stereo not drawn) | > 100 µM | 
45 | O=C1C(N=Nc2ccc(-c3nc4ccccc4[nH]3)cc2)NC(=S)N1c1ccccc1 (stereo not drawn) | > 100 µM | 
46 | COc1ccc(/C=N/n2c(Cc3ccc(Cl)cc3)n[nH]c2=O)c(OC)c1 | > 100 µM | 

Row | SMILES | TGI | GI50
47 | O=C1C[C@H](c2ccccc2)C2(C(=O)c3ccccc3C2=O)[C@H](c2ccccc2)C1 | > 100 µM | 
48 | CS(=O)(=O)O.[Ag] | 31.8 µM | 
49 | Cn1c(=O)oc2cc(C3CCC(=O)N3Cc3ccc(Cl)cc3)ccc21 (stereo not drawn) | > 100 µM | 
50 | COc1cc2c(cc1Cl)n([O-])c(C#N)c(N1CCN(c3ccc([N+](=O)[O-])cc3)CC1)[n+]2=O | > 100 µM | 
51 | Cc1ccc2[nH]c(C(=O)NN3C(=O)C(C)SC34CCCCC4C)c(-c3ccccc3)c2c1 (stereo not drawn) | 51.4 µM | 22.2 µM
52 | COc1ccccc1NC(=O)C1=C(C)NC(C)=C(C(=O)Nc2ccccc2OC)C1c1cccc2c1OCO2 | > 100 µM | 
53 | CC(=O)NC1=CC(=O)c2cc(C)cc(O)c2C1=O | 31.5 µM | 
54 | COC(=O)c1cccc(C(=O)OC)c1 | > 100 µM | 
55 | CCOc1cc(C2SCC(=O)N2c2nc3cc4sc(N5C(=O)CSC5c5ccc(O)c(OCC)c5)nc4cc3s2)ccc1O (stereo not drawn) | > 100 µM | 
56 | CC(=O)OC12CC(C)C3(O)C4C=C(C)C(=O)[C@@]4(O)CC(CO)=C[C@H]3C1C2(C)C (stereo partly drawn) | > 1000 µM | > 1000 µM
57 | Nc1ccc(-n2c(=O)oc3ccc(Cl)cc3c2=O)c(Cl)c1 | 2.34 µM | 0.326 µM
58 | CN1CCCCC(C(O)(c2ccccc2)c2ccccc2)C1=O (stereo not drawn) | > 100 µM | 
59 | O=C(OCc1ccccc1)N1c2cc([N+](=O)[O-])ccc2C(=O)N2CCC[C@H]2C1O (stereo partly drawn) | > 100 µM | 
60 | O=C1OCC2=C1C(c1cccc(C(F)(F)F)c1)c1cc3c(cc1N2CCO)CCC3 (stereo not drawn) | 9.44 µM | 0.492 µM
61 | O=C1CC/C(=C\COc2ccc3ccc(=O)oc3c2)O1 | 84 µM | 28.1 µM
62 | CCOC(=O)C(=O)Nc1ccc(Cl)c(C(F)(F)F)c1 | > 100 µM | 
63 | NC1=C(Cl)C(=O)c2ccccc2C1=O | 20.9 µM | 
64 | CCCCCCN1CCN(Cc2ccc(N(CC)CC)cc2)C(=O)C1=O | > 100 µM | 6.48 µM
65 | CCC(=O)c1ccc2c(c1)N(CCCN1CCN(CCO)CC1)c1ccccc1S2 | 32.9 µM | 17.9 µM
66 | CCOC(=O)C(=Cn1c(=S)[nH]c2ccc([N+](=O)[O-])cc21)C(=O)OCC | > 100 µM | 
67 | CCOC(=O)C(C)c1nc2cc(N3CCN(C)CC3)c(F)cc2[nH]c1=O (stereo not drawn) | > 100 µM | 
68 | Clc1ncnc2c1ncn2CCCCCCCCCCCCn1cnc2c(Cl)ncnc21 | 26.1 µM | 
69 | O=C(/C=C\c1ccc2ccccc2n1)c1cc(Cl)ccc1O | > 100 µM | 46.5 µM

Row | SMILES | TGI | GI50
70 | CCOC(=O)[C@H]1Nc2ccc(Cl)cc2[C@H]2c3ccccc3O[C@H]21 | > 100 µM | 
71 | COc1cc(CNc2nc3cc(C(F)(F)F)ccc3nc2C)cc(OC)c1OC | 62.6 µM | 
72 | CC1(C)[C@@H]2C[C@H]1C(Cc1cccc(C[C@H]3c4cc(-c5ccccn5)ncc4[C@H]4C[C@@H]3C4(C)C)c1)c1cc(-c3ccccn3)ncc12 (stereo partly drawn) | > 100 µM | 
73 | Oc1cc(Cl)ccc1Cc1ccc(Cl)cc1O | 37.9 µM | 17.2 µM
74 | CCC(C)C1(O)OC2CC3(C)OC(=CC3=O)/C(C)=C\C3OC(=O)C1(C)C32 (stereo not drawn) | 67.8 µM | 
75 | COc1cc(C(SCc2ccccc2)SCc2ccccc2)ccc1O | > 10 µM | 
76 | CC1(C)Cc2c(Br)c(Br)c(Br)c(OCC(O)CN3CCOCC3)c2O1 (stereo not drawn) | 28.4 µM | 14.3 µM
77 | COc1ccc(C(O)/C(=C/n2ccnc2)c2ccccc2)cc1OC (stereo not drawn) | > 100 µM | 
78 | COc1ccc2c(c1)C(=O)c1c-2n(CCCN2CCOCC2)c(=O)c2cc([N+](=O)[O-])ccc12 | 8.45 µM | < 0.01 µM
79 | O=C(NC1(C(=O)O)CC1c1ccccc1)c1ccccc1 (stereo not drawn) | > 100 µM | 
80 | CN1CC2CC(C1)c1cccc(=O)n1C2 (stereo not drawn) | > 100 µM | 
81 | CN(C)CCn1c(=O)c2ccc3c4c(nn3CCN(C)C)c3ccccc3n(c1=O)c24 | 1.71 µM | 
82 | CCCCCCCCC/C=C1\CC(CO)(COC(=O)c2ccccc2)OC1=O (stereo not drawn) | 85.8 µM | 
83 | COc1ccc2[nH]cc(-c3nc(-c4c[nH]c5ccncc45)cs3)c2c1 | 4.2 µM | 1.85 µM
84 | O=C(O)c1ccc(C2C3C=CC(C3)C2[N+](=O)[O-])cc1 (stereo not drawn) | > 100 µM | 
85 | NC(=O)NCCSC1CCCCC1O (stereo not drawn) | > 100 µM | 
86 | COc1ccc2c(c1)[C@@]1(C)CCC3c4ccc(O)cc4CCC3C1C2 (stereo partly drawn) | 32.8 µM | 15.3 µM
87 | CC1=CC2CC(C)C1(C)CCc1ccoc12 (stereo not drawn) | > 100 µM | 
88 | Cc1ccc2nc(N/N=C/c3cccc(C)n3)cc(C)c2c1 | 32.5 µM | 
89 | COc1cc2c3c(n(C)c(=O)c2cc1OC)-c1cc2c(cc1/C3=C/[C@H](N)CCCCN)OCO2 | 0.471 µM | 
